Molecular target: T1, biotinylated SARS-CoV-2 spike RBD (Ancestral) (SARS-CoV-2)
T1 construct: domain: RBD
Assay: AlphaLISA, inhibition of ACE2-muFc / biotinylated spike complex

B1: bispecific monoclonal antibody 493-004 (bispecific antibody)
chain: EVQLVESGGGLVQPGGSLRLSCAASGFTFSPSWMGWFRQAPGKEREFVATINEYGGRNYADSVKGRFTISADNSKNTAYLQMNSLKPEDTAVYYCARVDRDFDYWGQGTLVTVSSGGGGS[no letters for human IgG1 Fc with C220S (EU numbers)]GGGSGGGGSASEVQLVESGGGLVQPGGSLRLSCAASGSTFSINAMGWFRQAPGKEREFVAGITSSGGYTNYADSVKGRFTISADNSKNTAYLQMNSLKPEDTAVYYCAADGVPEYSDYASGPVWGQGTLVTVSS
IC50: 10.4 nM

From US20230002478A1 (TWIST BIOSCIENCE, published 2023)
